# Data published in the RNAGym collection of RNA variant scans (doi:10.1093/nar/gkz1192).
# Read counts are not given, so values of variants with three or more changes are uncertain.
# B1: CPEB3 Ribozyme (parent)
# chain: UAACAGGGGGCCACAGCAGAAGCGUUCACGUCGCAGCCCCUGUCAGAUUCUGGUGAAUCUGCGAAUUCUGCUGUAUAUCUC
# Variants of: B1
# Experiment: self-cleavage, relative activity (ratio to wild type); higher = more cleavage; in vitro, sequencing
# Summary of the method: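 CPEB3 self-cleaving ribozyme mutant libraries were made by rounds of error-prone PCR, barcoded, and transcribed in vitro with T7 RNA polymerase for 5 hours at 37°C. Cleavage occurred during transcription and a 15 min DNase I step before EDTA stop. RNAs were reverse transcribed with template switching and Illumina-sequenced, with DNA sequencing mapping barcodes to variants. Relative activity is the variant's cleaved/total read fraction divided by wild type's (minimum 5 reads), averaged across three batches.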
row,Variant,self-cleavage
1,G7A G16A A18U A20U,0.38
2,G7A A13C G16U A28G U60C U72A U78G,0.04
3,G6U C29U A56G A65G,0.05
4,G7A A15G C23U,0.21
5,G7C C29U U41C A56G,0.09
6,G7A A13G A57G U69A,0.27
7,G7A U26A U60C A64G,0.05
8,G7C G33A U58A,0.08
9,G7A G22U U25C A64G U72A U80C,0.06
10,G6A A20U U41C G55C U72A A77U,0.07
11,A5U U60C C62G U72C,0.43
12,G6A A57G U74A,0.57
13,G6A U25C U49A,0.09
14,G6U A13G A75U,0.45
15,G6A U25C A56G,0.08
16,G7C C11U A15U A65G A77G,0.18
17,G6C U51A C62U U80A,0.13
18,G6A C14U A28G A64U G73A,0.07
19,G7A C50U G53C U67C C68U U80C,0.04
20,G6A A13U U54C,0.44
21,G7A A21G U26C C59A U60A,0.05
22,G7U A20G G24A,0.19
23,G6A U31A A45U U60A,0.17
24,G6A A56U U69C,0.13

row,Variant,self-cleavage
1,G7A C38A G42A C62U U76A,0.04
2,G7A A15G U26A G42A U54G A64U,0.05
3,G6U A13G A28G A56G,0.34
4,G6A A47U G53C U54C,0.21
5,G7U A13U U67A,0.12
6,G6U A28G A45U,0.09
7,G7U A18G U48C U49C U67C,0.16
8,G6A U25C U31G C32A U80A,0.33
9,G7A A45C U51A A64G A75G,0.06
10,G7A A18G C29A U74C,0.07
11,G6A A15U U25C A47G A64G U67C U78A,0.03
12,G6U G33A A56G U67C,0.18
13,G6U A28G U60A U78C U80C,0.07
14,G6A A20G G24A U26A A57G U69C,0.18
15,G6U G52U A64U U69C,0.08
16,G7A U49C A64G,0.43
17,G7A A13U U43C A64G U66C U76C A77G,0.08
18,G7C U25C U48A U54G,0.05
19,G7A U78C U80C,0.11
20,G6A G10C A13G U54C U69C U72G,0.06
21,G6A U31C U49C A56U A64C,0.05
22,G7C A28G C34U U54C U76C,0.18
23,G6U U25C U60C,0.27
24,G6A G10U A21G A57C,0.05

row,Variant,self-cleavage
1,G6U U49A U78C,0.25
2,G7C A13G A64G,0.06
3,G6A C14U A35C,0.3
4,A5U U69G U80C,0.82
5,G6A A21G U26C U72C,0.34
6,G6A G36C G52U A65U,0.17
7,G6A G61A U67C,0.16
8,G6A U48C U78A,0.25
9,G6A A18G U49A,0.35
10,G7A C40G A45U,0.14
11,G7A A13G G42U U49C C59U,0.2
12,G6A C62U A64U U72C,0.08
13,G7C A13U U49C A56G U67C U78A,0.09
14,G6C A18U A35G U49C A56G,0.03
15,G6A A21G G52A U54C A64G,0.09
16,G7C A45G U58C U69C U76A,0.04
17,G7C U25C U31C U43A,0.21
18,G6A A15U G24A U72A,0.17
19,G7A G19C G30C U41A U60C,0.15
20,G6A A15G A56U U69C U74A,0.06
21,A5U U54C A56U U67C U80C,0.23
22,G6A C40U U41C U72A,0.31
23,G6A U43A A45G U78C,0.19
24,G6A A18U A20G U26C C29U A56G,0.08

row,Variant,self-cleavage
1,G6U U54A C71A U74C,0.19
2,G6A A18G U43G A45G,0.06
3,G6C A15U U80C,0.46
4,G7A U41C G53U U72C,0.27
5,G6A A57G U66C U67C,0.2
6,G7A A45C U78G,0.07
7,G7A G22A A64U,0.16
8,G6U U26A A28G U41A A45G U72A,0.13
9,G6U A13U U48C,0.24
10,G6A A28U U54C A77G,0.16
11,G6A U54A U60A,0.22
12,G7C A28G C50U,0.07
13,G7A A18G A20U U26A C62U U69C,0.03
14,G7A A13G U25A A64G,0.31
15,G6A A15U A28U U67C A75U,0.13
16,G6A A18U A35G G36A U72C,0.07
17,G7A U26C U54C A64G U78C,0.05
18,A5U U60C A64G,0.56
19,G7U A20G C50G A56G U72C,0.07
20,G7A A15U C23U A47G U48A,0.02
21,G6U G36A U67G,0.07
22,G7A G10A U26C U31C U54A A56G,0.05
23,G6A A45G G52A U60A G63U A75G,0.17
24,G6A C12U G24C A45U,0.06

row,Variant,self-cleavage
1,G6A A20U U31A U67C,0.14
2,G7C G19A A57U G63C A65G U66C U80C,0.04
3,G7A U25C U31C C37A U51A G63A,0.07
4,G6A A13C U41A A56G,0.11
5,G7A A20U U26A C37A U49C,0.15
6,G7A G10C U41A U48C U51A U72C,0.28
7,G7A A18U U25C,0.07
8,G6A A57G U60C,0.13
9,G7A A15C A21G U43C A57U U80C,0.03
10,G7A A35U A47C A56U U72C,0.12
11,G6A C34U A77U,0.31
12,G6A G10A C40U,0.3
13,G6A G52C U72C U80C,0.68
14,G7A C23G U26A U76C,0.06
15,G6A G24U C29U U43A A57G U60C U76C,0.06
16,G6A A13G A35G C38U U78C,0.35
17,G7A U41C U49A U69C,0.06
18,G6U U51C U60C U80C,0.08
19,G7A G36A A65G U69C,0.04
20,G7C G53U U72C,0.4
21,G6U A35G A45U,0.13
22,G6A U54C U69C U72C,0.05
23,G7A U25C A28G U69C,0.34
24,G7A A18G A20G A56G U69C,0.12

row,Variant,self-cleavage
1,G7U A13U A15G U69A,0.06
2,G6A U67C U74C,0.09
3,G6A G30A U31A A45G,0.09
4,G6U C32U A35U U67A,0.05
5,G6U A21G G36A,0.05
6,G6A G7U A15G A18G U58A,0.12
7,G6A A18G U51A U67C U80C,0.21
8,G6A C12U U48A A56G C62A,0.22
9,G6U G16C U60C U69C,0.06
10,G7U A18G U58C U72C,0.06
11,G6A A21G A28G U67C,0.06
12,G7A G9A A35G U49C U60A,0.05
13,G6A U25A U76C,0.07
14,G7A A21U A47G,0.06
15,G6U A13U A28G U54C U74A,0.07
16,G6U A35G U66C,0.28
17,G7A A15G U31C A35U U41A U58C U66A,0.04
18,G6A U25C A65G C79A,0.39
19,G6A A20C U26A U60C,0.06
20,G6U G24A A77G,0.06
21,G7C U43C U69C,0.17
22,G6A U41C U74A C81A,0.39
23,G6U A21G U25C A56G U58A U78A U80C,0.23
24,G7U A13U U26A A47G U51A G61A U72C,0.05

row,Variant,self-cleavage
1,G7A A20U G36A C40G,0.05
2,G7A A47G U49C,0.26
3,A5U U54C A57G,0.58
4,G7A A13U A28G U60A U78C,0.07
5,G7A U25C U54C U60C,0.07
6,G6A A15G C32U G53A A77C,0.07
7,G7A C37A U54A A57G A64G,0.04
8,G6A G36A U60C U76C,0.23
9,G7A U31G A75U,0.26
10,A5U U51C A57G,0.88
11,G7A A20G U31G A35G,0.07
12,A5U U51C U60C U80A,0.53
13,A5U U58C C71U A77G,0.35
14,G6A A13G A20G U72C,0.11
15,G6A A13U A35U A45G,0.07
16,G7C G30U U43C,0.08
17,G7A U51C U60C U72C,0.14
18,G6A U25A A64U,0.11
19,G6U C11G U25C U54A U58C C71U,0.08
20,G6A A35U U54A,0.44
21,G6A A13U A21C,0.08
22,G7A U25A A47G A57U G63C U74A,0.04
23,G7C A45G U58C C62U C68U U69C,0.11
